Assay results from PMC4336329 (PLoS ONE, 2015).
In all, about 310,000 compounds went through this assay and about 14,000 (4.5%) showed an effect of 50% or more. The effect is printed as a negative number. This is one part of the list.

Molecular target: human ether-à-go-go-related gene (hERG) potassium channel (human, UniProt Q12809)
Test: primary screen, population patch clamp on CHO cells stably expressing hERG
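Also: peak tail current of the secondary pulse compared with the same well before compound.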

Sequence of human ether-à-go-go-related gene (hERG) potassium channel (Q12809 whole entry, looked up): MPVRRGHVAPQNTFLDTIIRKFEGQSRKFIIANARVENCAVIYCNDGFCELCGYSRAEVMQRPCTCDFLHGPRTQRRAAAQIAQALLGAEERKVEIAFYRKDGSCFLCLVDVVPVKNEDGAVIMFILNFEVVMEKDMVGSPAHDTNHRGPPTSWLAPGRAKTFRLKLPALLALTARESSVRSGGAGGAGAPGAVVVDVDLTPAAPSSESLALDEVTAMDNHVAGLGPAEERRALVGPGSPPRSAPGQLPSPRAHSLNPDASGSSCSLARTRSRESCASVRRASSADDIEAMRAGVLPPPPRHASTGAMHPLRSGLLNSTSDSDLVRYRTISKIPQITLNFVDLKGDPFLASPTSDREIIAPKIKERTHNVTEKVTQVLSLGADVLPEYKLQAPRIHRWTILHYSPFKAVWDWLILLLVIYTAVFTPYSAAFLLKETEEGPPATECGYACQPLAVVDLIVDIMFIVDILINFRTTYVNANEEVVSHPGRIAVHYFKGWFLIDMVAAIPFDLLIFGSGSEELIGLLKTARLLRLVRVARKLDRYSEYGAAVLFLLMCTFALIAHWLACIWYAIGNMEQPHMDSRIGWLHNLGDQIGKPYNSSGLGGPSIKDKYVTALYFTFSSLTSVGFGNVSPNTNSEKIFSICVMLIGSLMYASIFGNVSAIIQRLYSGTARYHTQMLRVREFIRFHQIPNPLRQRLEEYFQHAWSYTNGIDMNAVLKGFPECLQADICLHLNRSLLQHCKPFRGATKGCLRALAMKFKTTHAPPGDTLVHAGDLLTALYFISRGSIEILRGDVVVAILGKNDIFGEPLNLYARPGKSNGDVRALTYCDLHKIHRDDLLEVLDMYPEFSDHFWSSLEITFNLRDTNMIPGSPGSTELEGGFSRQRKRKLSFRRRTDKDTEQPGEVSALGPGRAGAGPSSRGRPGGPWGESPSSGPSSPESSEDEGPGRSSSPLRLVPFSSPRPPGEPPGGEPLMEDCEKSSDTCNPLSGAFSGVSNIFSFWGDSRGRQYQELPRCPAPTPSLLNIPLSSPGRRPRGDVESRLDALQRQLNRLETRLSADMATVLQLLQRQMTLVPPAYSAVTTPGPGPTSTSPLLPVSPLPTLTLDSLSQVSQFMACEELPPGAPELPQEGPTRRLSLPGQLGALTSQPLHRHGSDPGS

SMILES | hERG current change (%, negative = inhibition) at 10uM [%]
COc1ccc(N(C(=O)CNC(=O)c2cccs2)C(C(=O)NC2CCCC2)c2ccncc2)cc1 (stereo not shown) | -7.12
N#CCCN(C(=O)COC(=O)c1ccc2c(c1)NC(=O)CS2)c1ccc2c(c1)OCCO2 | -22.8
O=C(N/N=C\c1ccc(OC(=O)c2ccco2)cc1)c1ccc(Cl)cc1 | -0.186
Nc1ccc(C(=O)N/N=C\c2ccc(OC(=O)c3ccccc3Cl)cc2)cc1 | 19.9
COc1ccc(-c2cc(-c3ccccc3)c(C#N)c(SCC(=O)Nc3ncc(C)s3)n2)cc1 | 7.28
COc1ccc(C(=O)CCC(=O)O)cc1 | 4.56
O=S(=O)(c1ccc(N2CCOCC2)nc1)N1CCOCC1 | 1.96
CCc1ccc(NC(=O)c2ccc(-n3cncn3)c([N+](=O)[O-])c2)cc1 | -24.1
COc1cc2c(cc1OC)C(c1ccccc1F)NCC2 (stereo not shown) | 8.75
N#Cc1ccccc1NC(=O)CC1c2ccccc2Oc2ccccc21 | -2.23
COc1ccc(NC(=O)C(=O)Nc2cccc3cccnc23)c(OC)c1 | 19.4
O=C(O)C(=O)O.c1ccc(COc2ccc(OCCCNC3CCCC3)cc2)cc1 | -57.1
Cc1ccc(S(=O)(=O)NCCNC(=O)N2CCOCC2)cc1 | 6.05
CC(C)COc1nc2ccccc2nc1N1CCN(C)CC1 | -72.9
CC(=O)Nc1cccc(C(=O)OCC(=O)NC(C)c2ccc(F)cc2)c1 (stereo not shown) | 13.7
OCCNc1nc2nonc2nc1NCCO | 11
COc1cccc2cc(/C(=N/O)c3ccccc3)oc12 | -10.9
CCOC(=O)Cn1cnc2scc(-c3ccccc3)c2c1=O | 11.3
Cc1ccc(S(=O)(=O)NC(CC(=O)O)c2ccccc2)cc1 (stereo not shown) | 15.5
O=C(NCc1ccccc1F)C1CCCN1C(=O)Nc1ccccc1 (stereo not shown) | 7.14
O=C(CSc1nnc(CNC(=O)c2cccc(C(F)(F)F)c2)o1)NCC1CCCO1 (stereo not shown) | 11.8
Cc1ccc(C(=O)Nc2cccc(NC(=O)c3ccc(C)c([N+](=O)[O-])c3)n2)cc1[N+](=O)[O-] | 2.38

SMILES | hERG current change (%, negative = inhibition) at 10uM [%]
CCOC(=O)/C=C1\SCC(=O)N1Cc1nnc(-c2ccccc2Br)o1 | -11.3
COCCN(C(=O)CSc1nnc(Nc2ccc(C)cc2)s1)c1c(N)n(CC(C)C)c(=O)[nH]c1=O | -7.66
CCOc1ccc(S(=O)(=O)Nc2ccc(C(=O)N/N=C(\C)c3ccc(-n4ccnc4)cc3)cc2)cc1 | -7.35
CCOc1ncccc1C(=O)Nc1cc(C(F)(F)F)ccc1N1CCOCC1 | 0.832
O=C(Nc1c(Cl)ccc2nsnc12)c1ccc([N+](=O)[O-])o1 | 5.18
COC(=O)C1=C(c2c(C)noc2C)C[C@@H]2CC[C@H]1N2C(=O)NC(C)C | 12.3
COc1ccccc1NS(=O)(=O)c1ccc(NC(=O)c2nc3nc(C)cc(C(F)F)n3n2)cc1 | -13.8
COc1ccc(NC(=O)c2ccc(Cl)nc2)cc1S(=O)(=O)N1CCCCC1 | -59
COc1ccc(C(=O)C2CCCN(Cc3cn(C)nc3-c3ccccc3)C2)cc1F (stereo not shown) | -72.4
CCOC(=O)CSc1nc2ccsc2c(=O)n1C1CCN(C(=O)OCC)CC1 | -17.3
CC(C)(C)NS(=O)(=O)c1ccc(OCC(=O)NCc2ccco2)cc1 | 10.6
CCOC(=O)C1=C(C)NC(=O)NC1c1ccc(OCC(=O)N2CCCCC2)cc1 (stereo not shown) | 7.81
Cc1ccc(C)c(NC(=O)C2CCCN(S(=O)(=O)c3ccc4[nH]c(=O)ccc4c3)C2)c1 (stereo not shown) | 6.02
COc1cc(NC(=O)Cn2cnc3ccccc3c2=O)c(OC)cc1Cl | 12.7
O=C(NCCc1ccccc1)Oc1ccc(Cl)cc1 | 1.75
Cc1ccc(C)c2sc(N3CCN(C(=O)c4ccc([N+](=O)[O-])o4)CC3)nc12 | -15.1
COc1ccc(CCN(C(=O)COc2ccccc2)c2nc(-c3ccccc3)cs2)cc1OC | 1.02
COc1cccc(/C=N/Nc2nc3ccccc3[nH]2)c1O | 5.17
O=C(NCc1ccc(Cl)cc1)C(=O)NCC1OCCN1S(=O)(=O)c1cc(F)ccc1F (stereo not shown) | 0.656
COc1ccc2oc(C(=O)OCC(=O)NC(C)c3ccccc3)c(C)c2c1 (stereo not shown) | -24.7
Clc1ccc2c(c1)Nc1ccccc1CC2 | -1.79
O=C(CSc1ccc2c(c1)OCCO2)NCCN1C(=O)CSC1=O | 5.59

SMILES | hERG current change (%, negative = inhibition) at 10uM [%]
Cc1noc(NS(=O)(=O)c2ccc(NC(=O)C(CC(C)C)N3C(=O)c4ccccc4C3=O)cc2)c1C (stereo not shown) | 5.57
Cc1ccc(OCC(=O)c2cc(C)n(C)c2C)c([N+](=O)[O-])n1 | -19.1
Cc1ccc(S(=O)(=O)N(C)c2ccc(OCC(=O)Nc3nc4ccccc4s3)cc2)cc1 | 17.8
Cn1c(=O)n(CCCOc2ccc(Br)cc2)c2ccccc21 | -3.96
CCN(CC)c1nc(-c2ccccc2)nc2ccccc12.Cl | -32.5
Br.N=C1c2ccccc2CN1NC(=O)c1cccc(S(=O)(=O)N2CCCC2)c1 | 12.6
O=C(Nc1ccc(Oc2cccnc2)cc1)C1CCCCN1Cc1ccc(CO)o1 (stereo not shown) | 1.59
O=C(O)c1cccnc1Sc1ccc(Br)cc1 | -24.5
COc1ccc(CNCC(O)(c2ccccc2)c2ccccc2)cc1OC | -60
COc1ccc(NC(=O)CSc2nc(N)c3cc4c(nc3n2)CCCC4)cc1 | -15.7
COCCCN(Cc1ccccn1)S(=O)(=O)Cc1ccccc1 | 4.48
COc1ccc(/C=N/NC(=O)Cn2cnc3c2c(=O)n(C)c(=O)n3C)c(OC)c1OC | 10.6
O=S(=O)(NCc1ccccc1)[C@@H]1CC2C=CC1C2 (stereo partly shown) | 1.81
COc1ccc(OC)c2c(C)cc(N3CCCCCC3)nc12 | -12.5
CCN(CC)C(=O)CN(c1cccc([N+](=O)[O-])c1)S(=O)(=O)c1ccccc1 | -26.2
CC1CN(C(=O)c2cc3cc(Cl)cc(Cl)c3oc2=O)CC(C)O1 (stereo not shown) | -6.75
CCNc1ccc(S(=O)(=O)N(C)C)cc1NCC(=O)Nc1ccc(Br)cc1F | -33.3
Cc1cc(NC(=O)CSc2nnc(C)n2-c2ccccc2)no1 | 39.2
Nc1nc(NCc2ccco2)nc(N2CCCC2)c1[N+](=O)[O-] | -13.5
CCOC(=O)c1c(C)n(C)c2ccc(OC(=O)c3ccc([N+](=O)[O-])cc3)cc12 | 24.7
Cc1cc2ccccn2c1C(=O)c1ccccc1Br | 3.13
O=C(C1=NN[C@@H]2C(=O)N(Cc3ccccc3)C(=O)[C@H]12)c1ccc(F)cc1 | 7.44

SMILES | hERG current change (%, negative = inhibition) at 10uM [%]
Cc1cc(/C=C(\C#N)C(=O)O)c(C)n1CC(C)C | 17.2
COc1cccc(COC(=O)c2sc3nc4n(c(=O)c3c2C)CCC4)c1OC | 11
CC(OC(=O)c1cccc(S(=O)(=O)N2CCCC2)c1)C(=O)NC1CCCCC1C (stereo not shown) | -7.21
CCCc1nc2ccc(NC(=O)c3ccco3)cc2c(=O)n1Cc1ccc(Cl)cc1 | -5.77
CCCCCCCNC(=O)C1(CC2CC(c3cccc(Br)c3)=NO2)CCNCC1 (stereo not shown) | -70.3
CCOC(=O)Cn1c(=O)oc2cc(S(=O)(=O)N3CCn4c3nc3ccccc34)ccc21 | -56.3
O=C(O)C1Cc2[nH]cnc2C(c2cccc([N+](=O)[O-])c2)N1 (stereo not shown) | 17.4
C1CCCCCC2(CCCCC1)OCC(CN1CCOCC1)O2 (stereo not shown) | -20.5
Cc1ccc2c(c1)N(CC(=O)NCc1ccco1)C(=O)C(C(C)C)O2 (stereo not shown) | -0.337
CCOC(=O)c1c(C)oc2c1cc(O)c1ccccc12 | 2.35
CC12CC3CC(C)(C1)CC(Nc1nc(N4CCOCC4)nc4ccccc14)(C3)C2 | 11.9
C=CCNC(=O)c1onc(CSc2ccc(Cl)cc2)c1C(=O)NCC=C | -36.6
CCN(CC)c1ccc(NC(=O)C2=CC=CN3CCS(=O)(=O)N=C23)cc1 | -2.98
CC(C)(C)c1ccc(OCc2ccc(C(=O)NCc3cccnc3)o2)cc1 | -10.2
CC1CCCCN1C(=O)c1cc(F)c(F)cc1Cl (stereo not shown) | 3.93
O=C(Nc1ccc(Cl)c(S(=O)(=O)N2CCOCC2)c1)c1ccc2c(c1)OCCO2 | 12.6
C/C(=N\Nc1c(Cl)c(Cl)nc(C(=O)O)c1Cl)c1ccc(O)cc1 | 13.7
O=C(/C(=C/c1cccnc1)n1ccnc1)c1ccc(Cl)cc1Cl | -28.9
Cc1nnc(SCC(=O)Nc2nsc(-c3ccccc3)n2)s1 | 4.36
